# Data published in the BET-seq Pho4 binding data (Le et al. 2018).
# Some of the results follow. The energies were worked out here from pooled read counts, against the library average; single values are noisy.
# Target: T1, Pho4 (S. cerevisiae) (UniProt P07270)
# T1 sequence: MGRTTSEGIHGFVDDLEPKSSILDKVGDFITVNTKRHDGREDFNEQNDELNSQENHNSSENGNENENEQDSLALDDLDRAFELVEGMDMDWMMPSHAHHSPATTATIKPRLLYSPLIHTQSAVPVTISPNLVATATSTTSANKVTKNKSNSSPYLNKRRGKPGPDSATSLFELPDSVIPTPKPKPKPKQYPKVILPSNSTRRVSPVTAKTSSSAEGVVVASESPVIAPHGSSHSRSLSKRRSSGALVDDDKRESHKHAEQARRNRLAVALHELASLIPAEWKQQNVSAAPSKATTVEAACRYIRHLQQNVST
# Test: relative binding free energy (BET-seq); higher = weaker binding
# Details: reference: library average
row,Sequence,relative binding free energy [kcal/mol]
1,CAAGACACGTGTGTGG,-0.04
2,TCCGGCACGTGGGTGT,-0.3
3,TGAGTCACGTGCGCGG,-0.19
4,GTTATCACGTGAATAG,0.39
5,CGGTACACGTGGGGTT,0.01
6,GCTGTCACGTGCTTGT,0.07
7,GGGAACACGTGCTTGG,0.19
8,ATTTACACGTGATGGA,0.19
9,GAATACACGTGTGGGT,0.15
10,TGTTGCACGTGTCTTT,-0.09
11,TGTAGCACGTGTGTGT,-0.04
12,GTGACCACGTGTTTGA,0.02
13,TGCAACACGTGGGCGT,-0.08
14,TAGCGCACGTGTGAGT,0.02
15,TGGGTCACGTGAGTTG,0.26
16,CTTTTCACGTGAGAGT,0.49
17,AAGGGCACGTGTGTAA,-0.12
18,CAGTTCACGTGAATAG,0.52
19,AGTGGCACGTGTTGGC,-0.03
20,ATAGTCACGTGTGTGG,0.02
21,TCAAGCACGTGGGGTT,-0.21
22,GGGGGCACGTGAATCG,0.29
23,TTGGGCACGTGACAAT,-0.11

row,Sequence,relative binding free energy [kcal/mol]
1,GTATGCACGTGCATTG,-0.03
2,AGCTACACGTGATGGG,0.29
3,AAGTGCACGTGAATGT,0.04
4,TTTGGCACGTGTGAAA,0.03
5,TCCTGCACGTGCGTGG,0.04
6,GGAAGCACGTGATGGT,0.06
7,GTGGACACGTGTTAAT,0.11
8,TTATCCACGTGGAGGT,0.05
9,TGGAGCACGTGATAAG,0.02
10,AAGCGCACGTGTTATG,-0.02
11,TGCGTCACGTGGTTGC,-0.09
12,ACGGTCACGTGATAGT,0.15
13,CGTGCCACGTGTGGGA,0.06
14,GGAACCACGTGTTGGG,-0.04
15,TTTGTCACGTGCGGTC,0.14
16,GAAGTCACGTGGTGCT,-0.04
17,TAGGGCACGTGTTGAG,-0.05
18,ATGGGCACGTGTGGTA,-0.11
19,GTACGCACGTGGGGTT,-0.17
20,ATGGTCACGTGATGTA,0.15
21,ATAAGCACGTGTTGGG,-0.07
22,GAGCGCACGTGAATGG,0.27
23,TTGCACACGTGGTTGT,-0.1

row,Sequence,relative binding free energy [kcal/mol]
1,ATTGGCACGTGGGTTC,-0.41
2,TACGGCACGTGTAGTG,-0.03
3,TGGATCACGTGGTATG,0.04
4,CTGTGCACGTGGGGTC,-0.19
5,AGTGTCACGTGAAGCG,0.28
6,GGTCTCACGTGTTGAT,0.31
7,ATCAGCACGTGGGGTA,-0.25
8,GTTTTCACGTGCGTAG,0.34
9,TGAGACACGTGTGGTC,0.23
10,GGAAGCACGTGCTTGG,-0.08
11,TAACTCACGTGGGTTA,0.02
12,TGCGCCACGTGGTGGC,-0.2
13,ATATTCACGTGACGGG,0.22
14,GTAGGCACGTGACTGT,0
15,TTACTCACGTGGTGTA,0.1
16,TGACGCACGTGGTGAA,-0.1
17,TCAGGCACGTGAGTTA,0.11
18,TGTGACACGTGAGATA,0.16
19,GTGGGCACGTGATGGA,0.09
20,AGGTTCACGTGGATAA,0.17
21,TGTGACACGTGAGTAA,0.12
22,TGCCGCACGTGGTGAG,-0.11
23,GAAGGCACGTGAGTCG,0.21

row,Sequence,relative binding free energy [kcal/mol]
1,TGGCTCACGTGATTTT,0.31
2,TAGCACACGTGGTTGG,0.01
3,TGGGTCACGTGGTTTT,0.23
4,TAGTGCACGTGGACTG,-0.14
5,TAGCTCACGTGGTGTA,0.21
6,GTTAACACGTGAGAGG,0.09
7,TGAATCACGTGTAGAG,0.17
8,TTGATCACGTGTAAAT,0.23
9,CTGTTCACGTGGTGCG,-0.04
10,GTCGTCACGTGGTGCG,0.09
11,TAGATCACGTGGCTGG,0.18
12,ATGGCCACGTGGGTTC,-0.06
13,GTTGACACGTGTAGGA,0.11
14,AAGTCCACGTGGTGCG,0
15,CTGGGCACGTGTTGAA,-0.14
16,TATTACACGTGTCTAG,0.07
17,AGTAACACGTGTGCTT,0.03
18,CGGAACACGTGTTTGT,0.06
19,GGGAACACGTGTGTCG,0.07
20,TATAACACGTGGGAGA,-0.12
21,CATTTCACGTGTTGTT,0.15
22,TGTTCCACGTGATTGA,0.22
23,TTGTACACGTGGTATA,-0.12

row,Sequence,relative binding free energy [kcal/mol]
1,GTTCTCACGTGGGTCG,0.24
2,GGGCACACGTGGGAGC,0.08
3,GTTTGCACGTGCATGT,0.03
4,TATGACACGTGAGCGG,0.17
5,GGTGGCACGTGCGAAG,-0.09
6,ATGTGCACGTGGGAAG,-0.1
7,GTGTTCACGTGTCTTG,0.32
8,GAATACACGTGGGTGT,-0.04
9,CACGTCACGTGGGGAG,0.07
10,TATATCACGTGGGTCA,0.03
11,AGGGGCACGTGACGTT,-0.08
12,GCTTTCACGTGGGGAT,0.3
13,AAGTGCACGTGAAAGT,0.29
14,GTTGGCACGTGTCAGG,-0.13
15,TATATCACGTGGCGTG,0.07
16,AGGTTCACGTGGGAAG,0.19
17,TTATGCACGTGCTTGA,-0.09
18,TAGGCCACGTGGGATG,-0.11
19,AGTGACACGTGAGGGA,0.17
20,TCGCACACGTGTGGTG,0.15
21,CTTGTCACGTGTTGAA,0.15
22,GGTCACACGTGCGGGT,-0.06
23,CTTTGCACGTGCGTGG,-0.01
